Molecular target: T1, mouse CbAP40-V5-His6 fusion protein (mouse, UniProt Q18PE0 38-504, radioactively labeled by in vitro transcription and translation with redivue Pro-mix L-[35S])
T1 construct: Made by in vitro transcription/translation (TNT kit) from pcDNA-mCbAP40; 512 amino acid residues in total with the 45-residue C-terminal tag. 'mature' stands here for the full-length protein; also called mouse CbAP40 protein; mCbAP40; not shown: vector-derived C-terminal tag of 45 amino acid residues (V5-His6)
T1 sequence: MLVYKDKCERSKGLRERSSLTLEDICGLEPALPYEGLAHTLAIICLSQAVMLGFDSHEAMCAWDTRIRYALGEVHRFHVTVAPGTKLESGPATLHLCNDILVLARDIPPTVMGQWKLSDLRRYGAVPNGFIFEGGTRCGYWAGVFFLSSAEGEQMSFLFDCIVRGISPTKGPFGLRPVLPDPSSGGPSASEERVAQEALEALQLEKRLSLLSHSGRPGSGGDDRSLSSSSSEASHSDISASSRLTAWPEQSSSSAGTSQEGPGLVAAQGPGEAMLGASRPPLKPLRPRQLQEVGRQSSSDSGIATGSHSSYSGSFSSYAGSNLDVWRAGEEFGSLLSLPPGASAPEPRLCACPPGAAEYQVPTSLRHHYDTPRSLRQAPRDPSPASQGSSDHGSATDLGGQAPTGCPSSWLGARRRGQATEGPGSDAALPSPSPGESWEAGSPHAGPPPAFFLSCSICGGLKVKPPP
Assay: GST pull-down with 35S-labeled in vitro translated protein, SDS-PAGE, autoradiography
Description: Using the protein GST-Cbl prepared above in (2), the presence or absence of the direct interaction of human and mouse CbAP40 proteins with the c-Cbl protein was confirmed by the GST-pull down method (Zikken Kougaku, Vol. 13, No. 6, 1994, p. 528, Matsushime, et al.). Using 0.5 μg of pcDNA-CbAP40 prepared above in Example 1(4) or pcDNA-mCbAP40 prepared above in Example 8(2) as a template, and additionally using 40 μl of TNT kit (TNT^R Quick Coupled Transcription/Translation System; Promega) and 1.3 MBq of a radioisotope (redivue Pro-mix L-[³⁵S]; Amersham) according to the attached protocol, human or mouse CbAP40 protein radioactively labeled was prepared by in vitro transcription and translation. Then, 15 μl each of the prepared solution of human or mouse CbAP40 protein was mixed with 1 μl of the GST protein or GST-Cbl purified on glutathione beads as described above in (2) to which 0.3 ml of Buffer A (50 mM Tris-HCl, pH 7.5, 10% glycerol, 120 mM NaCl, 1 mM EDTA, 0.1 mM EGTA, 0.5 mM PMSF, 0.5% NP-40) was added. The resulting mixture was shaken at 4° C. for one hour. Subsequently, the protein binding to the GST protein or GST-Cbl on the bead was co-precipitated by centrifugation. […] Consequently, a band never detected in mixing the GST protein was detected in case of mixing GST-Cbl.

B1: GST protein (other)
chain: not shown
notes: Control protein of the GST pull-down, on glutathione beads; also called protein consisting of the GST part alone; product of pGEX-6P-1
- binding result: no binding
